From PubChem BioAssay (NCI)
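Tested at 5 concentrations; 48 h exposure; 96-well plates; endpoints linearly interpolated, else capped at highest concentration. At the GI50, growth is halved. The concentration for full growth arrest is given as TGI.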

Tested on: NCI-H322M lung
Experiment: inhibition of tumour cell growth, NCI panel, 48 h

Structure (SMILES) | GI50 | TGI
CN1CCN(c2ccc(Nc3nc(NCCCNS(=O)(=O)c4ccccc4)c4sccc4n3)cc2)CC1 | 14.1 µM | 28.5 µM
CCCC(=O)NC(c1ccc2c(c1)OC(F)(F)O2)c1cc(C)c2cccnc2c1O (centres undefined) | 0.759 µM | > 100 µM
